The text below walks through data of US20250243260A1 (ALPINE IMMUNE SCIENCES, published 2025).

Numbering of substitutions follows the chain as printed. Names and notes keep the numbering of the source.

B1: CD80_223 variant CD80 IgV-Fc (E10S, V68M, Y87P) (Fc fusion)
chain: VIHVTKEVKSVATLSCGHNVSVEELAQTRIYWQKEKKMVLTMMSGDMNIWPEYKNRTIFDITNNLSIMILALRPSDEGTYECVVLKPEKDAFKREHLAEVTLSVKADGSGGGGS[omitted - human IgG4 Fc with S228P (EU numbers)]
notes: also called CD80_223-Fc
B2: CD80_233 variant CD80 IgV-Fc (V11Y, T28Y, M47L, V68M) (Fc fusion)
chain: B1 chain with S10E, V11Y, T28Y, M47L, P87Y
notes: also called CD80_233-Fc
B3: CD80_226 variant CD80 IgV-Fc (K9R, A26T, T28Y, E35A, M47L, A71G) (Fc fusion)
chain: B1 chain with K9R, S10E, A26T, T28Y, E35A, M47L, M68V, A71G, P87Y
notes: also called CD80_226-Fc
B4: CD80_236 variant CD80 IgV-Fc (V11Y, T28Y, M47L, A71G) (Fc fusion)
chain: B1 chain with S10E, V11Y, T28Y, M47L, M68V, A71G, P87Y
notes: also called CD80_236-Fc
B5: CD80_224 variant CD80 IgV-Fc (K9N, V11W, M47L, V68T, R73T, Y87N) (Fc fusion)
chain: B1 chain with K9N, S10E, V11W, M47L, M68T, R73T, P87N
notes: also called CD80_224-Fc
B6: CD80_231 variant CD80 IgV-Fc (V11W, T28Y, M47L) (Fc fusion)
chain: B1 chain with S10E, V11W, T28Y, M47L, M68V, P87Y
notes: also called CD80_231-Fc
B7: CD80_227 variant CD80 IgV-Fc (V11W, T28H, D46Q, V68L, L85E) (Fc fusion)
chain: B1 chain with S10E, V11W, T28H, D46Q, M68L, L85E, P87Y
notes: also called CD80_227-Fc
B8: CD80_225 variant CD80 IgV-Fc (V11Y, M47L, V68T) (Fc fusion)
chain: B1 chain with S10E, V11Y, M47L, M68T, P87Y
notes: also called CD80_225-Fc
B9: CD80_240 variant CD80 IgV-Fc (V11Y, T28Y, D46E, M47V, V68M) (Fc fusion)
chain: B1 chain with S10E, V11Y, T28Y, D46E, M47V, P87Y
notes: also called CD80_240-Fc
B10: CD80_238 variant CD80 IgV-Fc (V11Y, D46E, M47V, V68M) (Fc fusion)
chain: B1 chain with S10E, V11Y, D46E, M47V, P87Y
notes: also called CD80_238-Fc
B11: CD80_229 variant CD80 IgV-Fc (V11Y, M47V, A71G, L85E) (Fc fusion)
chain: B1 chain with S10E, V11Y, M47V, M68V, A71G, L85E, P87Y
notes: also called CD80_229-Fc
B12: CD80_239 variant CD80 IgV-Fc (V11Y, T28Y, D46E, M47V) (Fc fusion)
chain: B1 chain with S10E, V11Y, T28Y, D46E, M47V, M68V, P87Y
notes: also called CD80_239-Fc
B13: CD80_242 variant CD80 IgV-Fc (V11F, T28Y, M47L, T62S) (Fc fusion)
chain: B1 chain with S10E, V11F, T28Y, M47L, T62S, M68V, P87Y
notes: also called CD80_242-Fc
B14: CD80_241 variant CD80 IgV-Fc (E10S, V11F, T28Y, M47L) (Fc fusion)
chain: B1 chain with V11F, T28Y, M47L, M68V, P87Y
notes: also called CD80_241-Fc
B15: CD80_243 variant CD80 IgV-Fc (V11Y, M47L, A71G, Y87R) (Fc fusion)
chain: B1 chain with S10E, V11Y, M47L, M68V, A71G, P87R
notes: also called CD80_243-Fc
B16: CD80_235 variant CD80 IgV-Fc (V11Y, M47L, A71G) (Fc fusion)
chain: B1 chain with S10E, V11Y, M47L, M68V, A71G, P87Y
notes: also called CD80_235-Fc
B17: CD80_230 variant CD80 IgV-Fc (E10G, Q27F, D46N, A71G, D90G) (Fc fusion)
chain: B1 chain with S10G, Q27F, D46N, M68V, A71G, P87Y, D90G
notes: also called CD80_230-Fc
B18: CD80_228 variant CD80 IgV-Fc (E7Q, V11Y, R29H, M47L, V68T) (Fc fusion)
chain: B1 chain with E7Q, S10E, V11Y, R29H, M47L, M68T, P87Y
notes: also called CD80_228-Fc
B19: CD80_234 variant CD80 IgV-Fc (V11Y, T28Y, M47L, V68L) (Fc fusion)
chain: B1 chain with S10E, V11Y, T28Y, M47L, M68L, P87Y
notes: also called CD80_234-Fc
B20: CD80_232 variant CD80 IgV-Fc (V11F, T28Y, M47L) (Fc fusion)
chain: B1 chain with S10E, V11F, T28Y, M47L, M68V, P87Y
notes: also called CD80_232-Fc

The assay concerns the target T1, human CTLA-4 (human, UniProt P16410 36-223).
T1 construct: whole, on cells; also called CHO/CTLA-4 cells
T1 sequence (P16410 36-223): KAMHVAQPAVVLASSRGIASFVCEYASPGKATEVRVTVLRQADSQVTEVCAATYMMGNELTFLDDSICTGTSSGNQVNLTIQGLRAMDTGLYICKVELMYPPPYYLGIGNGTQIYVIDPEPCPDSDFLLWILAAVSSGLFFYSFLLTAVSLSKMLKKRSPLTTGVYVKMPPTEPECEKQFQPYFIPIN
In words: flow cytometry on CHO/CTLA-4 cells. In general terms: Flow cytometry measures light scatter and fluorescence of single cells or particles in a stream.
In the case of B1, the “MFI at 0.8 nM” value is 2440 MFI, the “MFI at 4 nM” value turned out to be 10400 MFI, the “MFI at 20 nM” value was determined as 44500 MFI and the “MFI at 100 nM” value came to 150000 MFI. Besides, the “fold change vs WT CD80 at 20 nM” value amounted to 0.05 fold.
For B2, the “MFI at 0.8 nM” value amounted to 349000 MFI, the “MFI at 4 nM” value came out at 559000 MFI, the “MFI at 20 nM” value was 593000 MFI and the “MFI at 100 nM” value amounted to 606000 MFI. Moreover, the “fold change vs WT CD80 at 20 nM” value is 0.72 fold.
The like results for B3 were, in that order, 336000 MFI, 490000 MFI, 555000 MFI, 534000 MFI and 0.67 fold.
As to B4, the “MFI at 0.8 nM” value came out at 268000 MFI, the “MFI at 4 nM” value was 483000 MFI, the “MFI at 20 nM” value was 507000 MFI and the “MFI at 100 nM” value came out at 491000 MFI. Moreover, the “fold change vs WT CD80 at 20 nM” value came out at 0.61 fold.
In the case of B5, the “MFI at 0.8 nM” value worked out at 246000 MFI, the “MFI at 20 nM” value came out at 503000 MFI, the “MFI at 100 nM” value was 520000 MFI and the “fold change vs WT CD80 at 20 nM” value turned out to be 0.61 fold.
On to B6, for which the “MFI at 0.8 nM” value worked out at 370000 MFI, the “MFI at 4 nM” value is 520000 MFI, the “MFI at 20 nM” value turned out to be 525000 MFI and the “MFI at 100 nM” value was determined as 549000 MFI. The “fold change vs WT CD80 at 20 nM” value turned out to be 0.63 fold.
The like results for B7 were, in that order, 18200 MFI, 59700 MFI, 184000 MFI, 452000 MFI and 0.22 fold.
As for B8, the “MFI at 0.8 nM” value was 235000 MFI, the “MFI at 4 nM” value was 390000 MFI, the “MFI at 20 nM” value stood at 476000 MFI and the “MFI at 100 nM” value is 493000 MFI. The “fold change vs WT CD80 at 20 nM” value is 0.57 fold.
For the molecule B9, the “MFI at 0.8 nM” value was 321000 MFI, the “MFI at 4 nM” value was 531000 MFI, the “MFI at 20 nM” value was 625000 MFI and the “MFI at 100 nM” value came out at 589000 MFI. Besides, the “fold change vs WT CD80 at 20 nM” value was found to be 0.75 fold.
The like results for B10 were, in that order, 44900 MFI, 123000 MFI, 337000 MFI, 498000 MFI and 0.41 fold.
As for B11, the “MFI at 0.8 nM” value came out at 2230 MFI, the “MFI at 4 nM” value was 8640 MFI, the “MFI at 20 nM” value was found to be 30000 MFI and the “MFI at 100 nM” value came out at 82100 MFI. Further, the “fold change vs WT CD80 at 20 nM” value was found to be 0.04 fold.
Consider B12, for which the “MFI at 0.8 nM” value was 345000 MFI, the “MFI at 4 nM” value amounted to 516000 MFI, the “MFI at 20 nM” value is 565000 MFI and the “MFI at 100 nM” value came to 555000 MFI. Moreover, the “fold change vs WT CD80 at 20 nM” value amounted to 0.68 fold.
For the molecule B13, the “MFI at 0.8 nM” value came to 308000 MFI, the “MFI at 4 nM” value turned out to be 498000 MFI, the “MFI at 20 nM” value is 520000 MFI and the “MFI at 100 nM” value worked out at 507000 MFI. For the same molecule, the “fold change vs WT CD80 at 20 nM” value was determined as 0.63 fold.
For B14, the “MFI at 0.8 nM” value was found to be 253000 MFI, the “MFI at 4 nM” value came to 473000 MFI, the “MFI at 20 nM” value came out at 505000 MFI and the “MFI at 100 nM” value worked out at 491000 MFI. In addition, the “fold change vs WT CD80 at 20 nM” value came to 0.61 fold.
For the molecule B15, the “MFI at 0.8 nM” value stood at 335000 MFI, the “MFI at 20 nM” value is 555000 MFI, the “MFI at 100 nM” value turned out to be 575000 MFI and the “fold change vs WT CD80 at 20 nM” value is 0.67 fold.
Consider B16, for which the “MFI at 0.8 nM” value is 246000 MFI, the “MFI at 4 nM” value was found to be 497000 MFI, the “MFI at 20 nM” value is 619000 MFI and the “MFI at 100 nM” value worked out at 636000 MFI. Moreover, the “fold change vs WT CD80 at 20 nM” value amounted to 0.75 fold.
In the same order, the values of B17 are 356000 MFI, 597000 MFI, 670000 MFI, 701000 MFI and 0.81 fold.
B18: the “MFI at 0.8 nM” value was found to be 20600 MFI, the “MFI at 4 nM” value was found to be 41100 MFI, the “MFI at 20 nM” value worked out at 80500 MFI and the “MFI at 100 nM” value worked out at 156000 MFI. Besides, the “fold change vs WT CD80 at 20 nM” value was determined as 0.1 fold.
Take B19: the “MFI at 0.8 nM” value amounted to 288000 MFI, the “MFI at 4 nM” value amounted to 546000 MFI, the “MFI at 20 nM” value was determined as 571000 MFI and the “MFI at 100 nM” value was determined as 567000 MFI. Besides, the “fold change vs WT CD80 at 20 nM” value was 0.69 fold.
As to B20, the “MFI at 0.8 nM” value stood at 359000 MFI, the “MFI at 4 nM” value is 521000 MFI, the “MFI at 20 nM” value worked out at 563000 MFI and the “MFI at 100 nM” value turned out to be 575000 MFI. For the same molecule, the “fold change vs WT CD80 at 20 nM” value was found to be 0.68 fold.
